Test results reported in PMC4336329 (PLoS ONE, 2015).
Hit rate of the full screen: of about 310,000 compounds, about 14,000 (4.5%) showed an effect of 50% or more. The effect is printed as a negative number. The list shows a part of the results.

Target: human ether-à-go-go-related gene (hERG) potassium channel (human, UniProt Q12809)
Test: primary screen, population patch clamp on CHO cells stably expressing hERG
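Note: peak tail current of the secondary pulse compared with the same well before compound.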

Chain of human ether-à-go-go-related gene (hERG) potassium channel (Q12809 whole entry, looked up): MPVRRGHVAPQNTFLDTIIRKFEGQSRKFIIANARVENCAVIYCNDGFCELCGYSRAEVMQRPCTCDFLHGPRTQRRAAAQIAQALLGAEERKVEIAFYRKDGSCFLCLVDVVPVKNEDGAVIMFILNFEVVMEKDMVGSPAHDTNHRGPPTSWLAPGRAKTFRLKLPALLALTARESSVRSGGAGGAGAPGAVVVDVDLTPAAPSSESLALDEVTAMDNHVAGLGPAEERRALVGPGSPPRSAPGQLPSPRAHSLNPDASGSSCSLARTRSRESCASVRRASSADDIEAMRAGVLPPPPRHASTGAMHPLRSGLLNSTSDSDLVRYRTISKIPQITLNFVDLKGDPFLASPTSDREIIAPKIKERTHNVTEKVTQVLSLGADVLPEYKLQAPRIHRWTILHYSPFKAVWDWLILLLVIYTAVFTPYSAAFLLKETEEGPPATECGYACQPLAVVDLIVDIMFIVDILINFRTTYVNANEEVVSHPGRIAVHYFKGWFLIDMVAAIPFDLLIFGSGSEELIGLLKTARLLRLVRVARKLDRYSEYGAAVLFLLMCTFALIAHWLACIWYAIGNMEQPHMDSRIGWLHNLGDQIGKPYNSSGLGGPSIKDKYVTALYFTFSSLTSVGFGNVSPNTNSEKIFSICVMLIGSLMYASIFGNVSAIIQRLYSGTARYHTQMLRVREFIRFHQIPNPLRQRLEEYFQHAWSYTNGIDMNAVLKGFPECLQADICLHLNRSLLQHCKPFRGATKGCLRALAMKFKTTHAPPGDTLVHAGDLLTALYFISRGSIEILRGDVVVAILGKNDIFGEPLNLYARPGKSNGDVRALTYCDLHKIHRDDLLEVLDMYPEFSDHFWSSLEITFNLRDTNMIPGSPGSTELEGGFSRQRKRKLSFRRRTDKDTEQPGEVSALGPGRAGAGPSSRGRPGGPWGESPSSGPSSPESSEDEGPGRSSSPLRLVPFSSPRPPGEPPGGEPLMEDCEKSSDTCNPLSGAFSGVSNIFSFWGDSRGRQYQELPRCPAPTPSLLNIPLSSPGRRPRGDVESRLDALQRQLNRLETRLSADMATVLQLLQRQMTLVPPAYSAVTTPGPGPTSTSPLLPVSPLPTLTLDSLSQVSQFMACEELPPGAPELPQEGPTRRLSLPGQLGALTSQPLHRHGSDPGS

SMILES	hERG current change (%, negative = inhibition) at 10uM
O=c1cc(N2CCN(c3ccccc3Cl)CC2)[nH]c(=O)n1Cc1ccc(F)cc1	-27.6%
Cc1ccc(C(=O)N(Cc2ccccc2)C(C)(C)C)cc1C	-14.9%
O=C(Nc1ccccc1C(=O)NCc1cccnc1)c1ccc(Cl)cc1Cl	-20.2%
CC(C)C(=O)OCc1cn(-c2ccc(Cl)c(Cl)c2)nn1	13%
O=C(CSc1nnc(-c2cccs2)n1-c1ccccc1)NCc1ccco1	-73%
CC(Nc1ccc(Cl)cc1)c1cc(Cl)ccc1O (centres unmarked)	-7.79%
O=C(Nc1ccccc1)OC1C2CCC1C(N1CCCCC1)CC2 (centres unmarked)	-37.5%
O=C1CC(c2ccco2)CC2=C1C=Nc1ccccc1N2 (centres unmarked)	-24.9%
Cc1nc2sc(C(=O)c3ccccc3)c(N)c2c2c1CCCC2	13.1%
COc1cc2nc(SCC(N)=O)n(CCC3=CCCCC3)c(=O)c2cc1OC	-10.9%
COc1ccc(-c2csc(Nc3ccccn3)n2)cc1	24.2%
Cc1ccc(C(=O)n2c(N)nc3ccccc32)cc1	17.2%
COc1ccccc1N1CCN(C(=O)c2ccc3c(c2)CCN3S(C)(=O)=O)CC1	-3.19%
COc1cccc(CNC(=O)c2cc(S(=O)(=O)N3CCCC3)cn2C)c1	-4.9%
c1ccc(CCCCNCC2COc3ccccc3O2)cc1 (centres unmarked)	-28.5%
CCOC(=O)c1cc(CC)sc1NC(=O)COC(=O)c1cnccn1	0.404%
C=CCn1c(SCC(=O)Nc2ccccc2F)nc2ccccc2c1=O	5.56%
COc1ccc(OCc2cc(C(=O)N3CCCCCCC3)no2)c(Cl)c1	-33.9%
Cc1ccc(NC(=S)N2CCCC(c3nc4ccccc4[nH]3)C2)cc1 (centres unmarked)	6.05%
COc1ccc(C)cc1NC(=O)CNC(c1ccccc1)c1ccccc1	6.01%
Cc1ccc(NC(=O)CC(N)=S)cc1	10.2%
CCC(=O)Nc1nnc(SCC(=O)NCCc2ccc(OC)c(OC)c2)s1	35.5%
CCN(CC)C(NC(=O)Cc1ccccc1)C(Cl)(Cl)Cl (centres unmarked)	7.67%

SMILES	hERG current change (%, negative = inhibition) at 10uM
CCCc1[nH]n(-c2nc3ccccc3s2)c(=O)c1C=NCCN1CCOCC1	-34.5%
Cc1cc(N2CCN(C3CCCC3)CC2)n2c(nc3ccccc32)c1C#N	-12.9%
O=c1ccc2ccc(OCCOc3cccc(Cl)c3)cc2o1	3.9%
COc1ccc(-c2[nH]ncc2CNCCc2ncccc2C)cc1F	-41.7%
COc1ccc(-n2c(SCC(=O)Nc3cc(C)on3)nc3c(c2=O)SCC3)cc1OC	10.9%
O=C(Nc1ccc2c(c1)CCC2)c1ccccc1F	3.1%
CCC(=O)Nc1ccc2c(c1)nc(CCN1CCN(c3ccccc3)CC1)n2C	-33.5%
CCOC(=O)CCSc1nc(C)c2cc(C)c(C)cc2n1	-12.8%
Cc1ncc([N+](=O)[O-])n1Cc1ccc(F)cc1	10.5%
COc1ccc(-n2c(Cc3cccn3C)nnc2SCC(=O)N2CCC(C)CC2)cc1	-9.64%
O=C(c1ccc([N+](=O)[O-])c(CS(=O)(=O)c2ccc(Cl)cc2)c1)N1CCCCC1	-32.4%
O=C(N=C1c2ccccc2CN1c1ccccc1)c1cccc([N+](=O)[O-])c1	-1.72%
CCCCCN1C/C=C\C(c2ccc(OC)cc2)N(Cc2ccc(F)cc2)C(=O)C1 (centres unmarked)	-25.3%
Cc1nn(-c2ccc(F)cc2)c2c1cc(C#N)c1nc3ccccc3n12	9.66%
N/C(=N\OC(=O)COc1ccc(Br)cc1Cl)c1ccncc1	6.82%
Cc1[nH]c2ccc(F)cc2c1CCN(Cc1ccncc1)C(=S)Nc1ccc(F)cc1	-38.4%
COC(=O)c1sc2ncccc2c1OCc1ccc(Cl)cc1	1.03%
Cc1ccc(NC(=O)c2nc3nccc(C)n3n2)c(C)c1	3.18%
CCCc1sc(N/N=C/c2ccccn2)nc1-c1ccc(F)cc1	9.31%
O=C(CCc1ccccc1)Nc1nnc(-c2cccs2)o1	22.6%
O=S(=O)(NCC1CC1)c1cc(Cl)cc(Cl)c1	12.1%
O=C(NCc1cn(-c2ccccc2)nc1-c1ccc(F)cc1)c1cccc([N+](=O)[O-])c1	8.31%
CCOC(=O)N1CCN(C2CCCN(C(=O)c3cccc(N(C)C)c3)C2)CC1 (centres unmarked)	16.8%

SMILES	hERG current change (%, negative = inhibition) at 10uM
CCOC(=O)C(=CNc1ccc(S(N)(=O)=O)cc1)C(=O)OCC	-2.11%
Cc1ccc(Cc2nnc3n(-c4ccccc4)nc(C(=O)c4ccccc4)n3c2=O)cc1	-4.26%
CCOC(=O)C1CCN(C(=O)Cn2nc(C)n3nc(-c4ccc(OC)cc4)cc3c2=O)CC1	4.09%
N#Cc1cc2c(nc1SCC(=O)Nc1cc(Cl)ccc1Cl)C1CCN2CC1	-51.7%
COCCn1c(SCC(=O)Nc2ccccc2OC)nc2c(oc3ccccc32)c1=O	-34%
NC(=O)CC(NC(=O)Cc1ccc(Cl)cc1)c1ccc(NC2CCCCCCC2)c([N+](=O)[O-])c1 (centres unmarked)	16.7%
Cc1cc(C)cc(OCC(=O)NC(C)c2ccccc2)c1 (centres unmarked)	15.2%
Fc1ccc(C2CCCN2Cc2nc(Cc3ccccc3F)no2)cc1 (centres unmarked)	-8.77%
COc1cc(CN2CCC(CO)(CCOc3ccccc3)CC2)cc(OC)c1OC	-38.3%
O=C(NCCCN1CCOCC1)C(c1ccccc1)c1ccccc1	15.6%
CC(C(=O)NCc1ccccc1)N1C(=O)c2ccccc2C1=O (centres unmarked)	16.1%
CCN1CCCC(Sc2nc3c([nH]2)c(=S)n(C)c(=O)n3C)C1 (centres unmarked)	8.96%
CC(=O)Nc1sc(N/N=C\c2cccc(Cl)c2)nc1-c1cccs1	-3.54%
O=C(C(=C1N(Cc2ccc(Cl)nc2)CCN1Cc1ccc(Cl)nc1)[N+](=O)[O-])C(Cl)Cl	-26.6%
NC(=O)c1cnn(-c2cc(Oc3ccccc3)ncn2)c1N	15.9%
CCN(CC)CCN1c2ccccc2Sc2ccccc21.O=C(O)C(=O)O	-41.3%
Cn1nnnc1Sc1ncnc2scc(-c3ccccc3)c12	-23.4%
CC(c1ccco1)N(C(=O)c1ccc(F)cc1)c1ccccn1 (centres unmarked)	22.9%
CCn1cc(C(=O)N2CCCC(N3CCN(c4ccccc4C)CC3)C2)cn1 (centres unmarked)	-7.66%
O=C(COC(=O)c1cc(=O)[nH]c2ccccc12)NCc1cccs1	-3.12%
Cc1ccc(CNS(=O)(=O)c2ccc(F)c(F)c2)n1C	15.3%
C/C(=N\O)c1ccc(Cl)cc1Cl	3.42%
O=C(CN(Cc1cccs1)C(=O)c1csnn1)NC1CCCC1	1.83%

SMILES	hERG current change (%, negative = inhibition) at 10uM
N#Cc1ccc(OCC(=O)NCCc2ccccn2)cc1	-7.98%
COc1ccc(CCNc2cc(C)nc3c(-c4ccc(Cl)cc4)cnn23)cc1OC	17.1%
CCOC(=O)Cc1csc(NC(=O)c2cc(C)cc(C)c2)n1	-12.9%
CC(C)C(C)NC(=O)CN1C(=O)NC2(CCCc3ccccc32)C1=O (centres unmarked)	4.87%
COc1ccc(C2/C=C\CN(S(=O)(=O)c3cccs3)CC(=O)N2Cc2ccc(F)cc2)cc1 (centres unmarked)	-0.276%
COc1ccc(S(=O)(=O)NCc2ccco2)c2ccccc12	-9.68%
COC(=O)C(C)n1cnc2c(nnn2-c2ccc(F)cc2)c1=O (centres unmarked)	-13.2%
CC1CCCN(S(=O)(=O)c2ccc(NC(=O)CN3C(=O)NC(C)(c4ccccc4)C3=O)cc2)C1 (centres unmarked)	-6.49%
O=C(Nc1cccc([N+](=O)[O-])c1)c1ccccc1	7.97%
CCN(C(=O)CSc1nnc(C)n1Cc1ccccc1)C1CCS(=O)(=O)C1 (centres unmarked)	21.1%
O=C(CNS(=O)(=O)c1ccccc1)N/N=C/c1ccncc1	-0.283%
COc1cccc(OC)c1C(=O)NNC(=O)c1cccc(COc2ccc3c(c2)CCC3)c1	-1.39%
CCOC(=O)c1ccccc1NC(=O)CC(C)CC(=O)O (centres unmarked)	10.9%
COc1ccc(C(=O)N[C@H](C(=O)NCc2ccc(C)cc2)C(C)C)cc1	7.17%
CCOC(=O)C1(Cc2ccc(Cl)cc2)CCN(C(=O)c2cnc(C)cn2)CC1	-57.1%
Cc1ccc(-c2ccc(C#N)c(=O)n2CC(=O)N(C)C)cc1	5.38%
CN1CCN(S(=O)(=O)c2ccc(Nc3cccc(Cl)c3)c([N+](=O)[O-])c2)CC1	-20.7%
COc1ccc(NC(=O)CN2CCN(c3c(C)cccc3C)CC2)cc1	-24.4%
COc1ccccc1/C=N/NC(=O)C(=O)N1CCN(c2ccccc2OC)CC1	-9.23%
CCOC(=O)c1[nH]c2ccc(OC)cc2c1NC(=S)N1CCN(c2ccccc2)CC1	-0.7%
